Experimental data reported in the supplement of paper PMC4166925.
± gives the standard deviation of the averaged measurements. Over roughly 33,000 sequences, “E-score (dimensionless, -0.5 to 0.5)” has its median near -0.049; the highest 2% begin near 0.37. Some of the results follow.

Test system: T1, PmTbr T-box DNA-binding domain (GST fusion)
T1 sequence: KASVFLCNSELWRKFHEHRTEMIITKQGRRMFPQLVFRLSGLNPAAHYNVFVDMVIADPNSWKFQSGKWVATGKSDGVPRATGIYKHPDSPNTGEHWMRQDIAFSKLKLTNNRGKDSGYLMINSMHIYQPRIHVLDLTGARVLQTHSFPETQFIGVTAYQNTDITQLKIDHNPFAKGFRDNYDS
Assay: PBM E-score of 8-mer (E-score (dimensionless, -0.5 to 0.5)); Tbr is Tbrain of the sea star Patiria miniata (Pm) or the sea urchin Strongylocentrotus purpuratus (Sp); higher = stronger binding preference; most listed sequences are background and not binding sites
Details: the construct has about 5 more residues each side
Outline: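 Primer extension turned Universal Agilent oligonucleotide arrays double-stranded. They were incubated with 200 nM protein in PBS (pH 7.5); the protein was a GST-fused Tbr T-box DNA-binding domain expressed in BL21 E. coli at 20 °C and purified on glutathione. Every ungapped 8-mer was scored from the scanned, quantified probe intensities, and the Universal PBM Analysis Suite gave each an enrichment E-score averaged over duplicate arrays.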

Row | Sequence | PBM E-score of 8-mer
1 | ATGCGGCA | 0.0459 ± 0.056
2 | ACGTATAG | -0.0944 ± 0.066
3 | GACTAAAA | -0.038 ± 0.085
4 | AACTTACC | -0.0471 ± 0.021
5 | CTAACAAC | 0.338 ± 0.018
6 | GTTTCCAA | -0.165 ± 0.02
7 | ATGCGCAG | -0.129 ± 0.06
8 | ATAGGATA | -0.243 ± 0.03
9 | AGTCCCTA | -0.123 ± 0.027
10 | GGGTCAAA | -0.282 ± 0.013
11 | CGGGGCGC | 0.154 ± 0.0063
12 | ACGGCGGG | 0.0264 ± 0.002
13 | GGAGCAAA | -0.157 ± 0.037
14 | TTCAGAAA | -0.227 ± 0.084
15 | CAAGCCTC | -0.091 ± 0.046
16 | CCAAACCC | -0.0465 ± 0.11
17 | AACAGGCC | -0.118 ± 0.0077
18 | ATGTAATG | -0.2496 ± 0.0015
19 | TAATTGGA | -0.0622 ± 0.014
20 | AAGTTTCG | -0.0542 ± 0.037
21 | AAGTGATA | 0.37 ± 0.025
22 | ACCTCAAT | -0.0399 ± 0.019

Row | Sequence | PBM E-score of 8-mer
23 | CGAATATA | -0.132 ± 0.019
24 | CGATCAGA | -0.0993 ± 0.12
25 | AGTACTTG | 0.0729 ± 0.0017
26 | CGGGCACA | 0.101 ± 0.0054
27 | CTCCAGGA | -0.18 ± 0.013
28 | GCCGATAA | 0.0873 ± 0.022
29 | CACGGAGA | 0.00222 ± 0.037
30 | AACATGTT | 0.0354 ± 0.022
31 | TAAAATCA | 0.0751 ± 0.019
32 | CGACCGCC | -0.0124 ± 0.07
33 | AACACACG | 0.181 ± 0.03
34 | TATGTTCA | 0.0299 ± 0.016
35 | AGGCTGCC | -0.0922 ± 0.15
36 | CATACACC | 0.117 ± 0.0094
37 | AACGTTGA | -0.0245 ± 0.078
38 | TGCACCAA | 0.0214 ± 0.017
39 | CAAGGGTA | -0.0835 ± 0.064
40 | CGATTGTA | -0.019 ± 0.0059
41 | ATTGCCTC | -0.331 ± 0.024
42 | CGGGCGTC | 0.131 ± 0.047
43 | CTCGATTA | 0.042 ± 0.14
44 | AGCTAAAT | -0.0587 ± 0.0072

Row | Sequence | PBM E-score of 8-mer
45 | ATATGGCC | -0.235 ± 0.066
46 | GAAAACTA | -0.0923 ± 0.082
47 | CGGAGAGC | -0.185 ± 0.021
48 | GGAAACAC | 0.0659 ± 0.019
49 | ACGTGGCT | -0.0363 ± 0.099
50 | AGAGTTGC | 0.0099 ± 0.0045
51 | GCAAGGCA | -0.139 ± 0.043
52 | TTGCTAAA | 0.241 ± 0.078
53 | GTCCGCCA | 0.0338 ± 0.083
54 | AATGCTTG | -0.0694 ± 0.082
55 | GCAGATGC | -0.278 ± 0.0035
56 | TCGTTGCA | -0.0903 ± 0.089
57 | GGCCACAC | 0.325 ± 0.019
58 | CACAGGCG | 0.127 ± 0.027
59 | AAGCCAAT | -0.162 ± 0.051
60 | TAACAAAA | 0.0887 ± 0.083
61 | ACATTGTA | -0.048 ± 0.0027
62 | GCCGCAGA | -0.259 ± 0.034
63 | CATTTCAG | 0.0456 ± 0.033
64 | GCTCGCCA | 0.194 ± 0.0075
65 | ACTGGTAA | -0.134 ± 0.069
66 | GCTCCCAA | -0.0892 ± 0.012

Row | Sequence | PBM E-score of 8-mer
67 | AGCAGTTG | 0.0881 ± 0.0054
68 | AAACGTGA | 0.229 ± 0.1
69 | CAACCTGC | 0.141 ± 0.026
70 | ACTACCGC | -0.0368 ± 0.039
71 | ACCGCGGC | -0.0821 ± 0.053
72 | CCCTTCGG | -0.192 ± 0.022
73 | AAGGCTCG | -0.054 ± 0.059
74 | TGCCTCAA | -0.18 ± 0.061
75 | AGACTCCC | -0.0857 ± 0.096
76 | CACTCCAC | 0.198 ± 0.027
77 | AGACTCCT | -0.263 ± 0.049
78 | ATCTAGGC | -0.309 ± 0.036
79 | TCACGAAA | 0.112 ± 0.057
80 | CGCCGGCC | -0.0282 ± 0.012
81 | ACGCTTCG | 0.205 ± 0.0048
82 | ACTTTCTG | 0.0395 ± 0.063
83 | CGACGAAC | -0.0347 ± 0.042
84 | CGCTTATA | -0.0951 ± 0.075
85 | CGTCTTTC | -0.0275 ± 0.015
86 | AGATGCCC | -0.147 ± 0.025
87 | CTGTGTCA | 0.216 ± 0.027
88 | AAGCAAAG | -0.104 ± 0.017

Row | Sequence | PBM E-score of 8-mer
89 | GCAGTAGA | -0.188 ± 0.018
90 | CGCGATCA | 0.2 ± 0.048
91 | CCTATTAC | -0.0634 ± 0.0018
92 | ACGTTTCT | -0.111 ± 0.046
93 | GCGAATGA | 0.172 ± 0.021
94 | AATCCAAC | -0.00751 ± 0.0064
95 | CTCTCCAC | 0.0374 ± 0.028
96 | ACGACCCT | -0.202 ± 0.013
97 | CACCTCTG | 0.4165 ± 0.00058
98 | AGGTGGTA | 0.415 ± 0.0043
99 | ATTTGGGC | -0.143 ± 0.011
100 | GCCGAGGC | 0.0489 ± 0.028
101 | CGTAGTTC | -0.0871 ± 0.059
102 | GGTTAAAC | -0.174 ± 0.034
103 | CGAGCACG | -0.23 ± 0.024
104 | AGCGAGAT | 0.0736 ± 0.074
105 | CTTAAGGC | -0.0813 ± 0.065
106 | ATCGCTTC | 0.0264 ± 0.017
107 | GCAAACCA | -0.197 ± 0.063
108 | ACCCCGGT | -0.0222 ± 0.02
109 | ATCCTAGG | -0.256 ± 0.043
110 | CCTACAGA | 0.0375 ± 0.087
